Screen size: about 73,000 compounds; about 1,800 (2.5%) were called active. This list was built around the results that the source calls inconclusive (neither active nor inactive); the mix of calls is not that of the screen. Calls come from the whole dose curve; as a rule, active = well fitted activation curve with a large enough effect; inconclusive = small, poorly fitted or top-dose-only effect; inactive = no such curve, though single readings can be large or run the other way. Potencies of inconclusive entries are left out as doubtful fits.
Assay: qHTS Assay for Agonists of the Thyroid Stimulating Hormone Receptor: Activators of Intracellular cAMP Concentrations in Parental HEK 293; note: nearly all actives have a fitted effect of over 55% in size; for activation: % of control where 0% means no effect
Details: parental HEK293 CNG cAMP sensor, membrane potential fluorescence; activation: at 57.1 µM (top of the series) unless noted
Method in brief: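 Parental HEK 293 cells stably expressing a modified CNG channel (no TSHR) report cAMP rise as membrane depolarization. Membrane potential dye with 100 uM RO 20-1724 was loaded for 60 min at room temperature, then compound added for 30 min; fluorescence read at 590 nm.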
Potency is the fitted concentration of half-maximal effect; tags give direction and shape of the fitted curve.

Compound | Potency | activation
CCCn1c(C)nc2c(N(CCN(CC)CC)CCN(CC)CC)nc(C)nc21 | inconclusive [activator, single point] | 
CC(C)CNc1nc(N)[nH]c(=O)c1NC=O |  | inactive: 1.27% [at 11.4 µM]
COc1ccc(-c2noc(-c3ccccc3F)n2)cc1 | inactive | 
O=C(NCCN1CCN(c2ccccc2)CC1)c1cccn2c(=O)c3cc(Cl)ccc3nc12 | inconclusive [activator, full curve] | 
CC(C)C(NC(=O)c1ccccc1NC(=O)c1ccco1)C(=O)O (stereo not given) | active: 31.6 µM | 
COc1ccccc1NC(=O)c1cn(C)c(=O)c2cc(OC)c(OC)cc12 | inactive | 
Cc1cc(C(=O)CSc2nnnn2-c2ccc(O)cc2)c(C)n1Cc1ccc2c(c1)OCO2 | inconclusive [activator, single point] | 
CCC(=O)Nc1cccc(NC(=O)CSc2nnc(C(C)C)n2CC)c1 | active: 12.6 µM | 
Cc1cc2c(c(=O)n1CC1CCCO1)C(c1ccco1)C(C#N)=C(N)O2 (stereo not given) | inconclusive [activator, partial curve] | 
COc1ccc(C(c2nnnn2CC2CCCO2)N2CCN(c3cccc(C)c3C)CC2)cc1 (stereo not given) | active: 7.94 µM | 
O=C(c1oc2ccccc2c1N1CCCCC1)N1CCCCC1 | inconclusive [activator, single point] | 
O=C(O)c1csc(Br)c1Br | inconclusive [activator, partial curve] | 
CC(C)C[C@@H](CC(=O)N[C@@H](CCC(=O)O)CC(=O)O)NC(=O)[C@@H]1CCCC[C@H]1NC(=O)C[C@@H](NC(=O)C[C@H](CO)NC(=O)[C@@H]1CCCC[C@H]1N)C(C)C | inconclusive [activator, single point] | 
CC(=O)c1ccc(Nc2ncnc3c2oc2ccccc23)cc1 | inconclusive [activator, partial curve] | 
C=CCc1ccccc1OC[C@H](O)CNC(C)C | inactive | 
O=C(Oc1ccccc1)N1CCC2(CCCN(c3ccncc3)C2)CC1 | inconclusive [activator, full curve] | 
Cc1cc(NC(=O)CSc2nnc(COc3ccccc3)o2)no1 | inactive | 
CCOc1cccc(C2c3c(oc4cc(C)c(C)cc4c3=O)C(=O)N2CCCN(C)C)c1 (stereo not given) | inactive | 
CC(=O)OCCNc1cc(N2CCN(C)CC2)c2noc3c2c1C(=O)c1ccccc1-3 | inactive | 
CC(C)C[C@@H](CC(=O)N[C@@H](CCC(=O)O)CC(=O)O)NC(=O)[C@@H]1CCCC[C@H]1NC(=O)C[C@H](CCCN)NC(=O)C[C@H](Cc1ccccc1)NC(=O)[C@@H]1CNCC[C@H]1N | inconclusive [activator, single point] | 
O=c1oc2c(CN3CCOCC3)c(O)c(Cl)cc2c2c1CCC2 | inactive | 
c1ccc(Cn2nnnc2CN2CCN(Cc3ccc4c(c3)OCO4)CC2)cc1 | inconclusive [activator, single point] | 
CCNc1ncc2nc(-c3cn(C)c4ccccc34)c(=O)n(-c3ccccc3)c2n1 | inactive | 
COc1ccc(C(=O)OCCNC(=O)c2c(Cl)nc3ccccn23)cc1 | inactive | 

Compound | Potency | activation
COc1ccc(S(=O)(=O)N(C)CC(=O)NC2CCCCC2)cc1OC | inconclusive [activator, single point] | 
C/C(=C\C(=O)c1ccc(F)cc1)Nc1ccc(N2CCOCC2)cc1 | inactive | 
COC(=O)COc1ccc(S(=O)(=O)Nc2ccccc2SC)cc1 | inconclusive [activator, single point] | 
COCCN(CCOC)c1nc(C)nc2c1nc(-c1ccccc1)n2CCCN(C)C | inconclusive [activator, single point] | 
CCOC(=O)C1=C(N)OC2=C(C(=O)CCC2)C1c1ccc(C)s1 (stereo not given) | inconclusive [activator, partial curve] | 
COc1cc2[nH]c(=O)n(CCC(=O)N3CCN(c4cccc(C)c4C)CC3)c(=O)c2cc1OC | inactive | 
CCCn1c(-c2ccc(F)cc2)nc2c(N3CCN(C)CC3)nc(C)nc21 | active: 15.8 µM | 
Fc1ccc(C2=Nn3c(nnc3-c3n[nH]c4c3CCC4)SC2)cc1 | inconclusive [activator, single point] | 
O=C(CSc1ncnc2c1oc1ccccc12)Nc1cccc(F)c1 | inconclusive [activator, single point] | 
Cc1cc(C)cc(OCc2nnc(SCC(=O)c3ccc(Br)cc3)o2)c1 | inconclusive [activator, partial curve] | 
Cc1c(C(=O)OCC(=O)N2CC(C)OC(C)C2)oc2ccc(Br)cc12 (stereo not given) | inconclusive [activator, single point] | 
COc1ccc(-c2cn3c(C)c(C(=O)Nc4cccc(NC(C)=O)c4)sc3n2)cc1 | inactive | 
COc1ccccc1OCC(=O)Nc1ccc(S(=O)(=O)Nc2nc(C)cc(C)n2)cc1 | inconclusive [activator, single point] | 
O=C(C1CC1)N1CCC(c2nc(-c3ccc(S(=O)(=O)NCC4CCCO4)cc3)no2)CC1 (stereo not given) | inconclusive [activator, partial curve] | 
CCS(=O)(=O)N1CCN(C(=O)c2ccc(-c3ccccc3)cc2)CC1 | inconclusive [activator, single point] | 
CCOC(=O)Cc1csc(NC(=O)CCc2ccc(S(=O)(=O)N3CCOCC3)cc2)n1 | inconclusive [activator, partial curve] | 
O=C(CCSc1ccc(F)cc1)Nc1ccc(-n2cnnn2)cc1 | inconclusive [activator, single point] | 
CCOc1ccc(CCNC(=O)C(CC)n2nc(C)n3c(cc4sccc43)c2=O)cc1OCC (stereo not given) | inconclusive [activator, single point] | 
CC(C)Cn1c(-c2cccs2)nc2nc3ccccc3nc21 | inactive | 
CC(C)(C)c1ccc(Cn2nnc3c(=O)[nH]c(C4CCN(C(=O)Cc5cccs5)CC4)nc32)cc1 | inconclusive [activator, single point] | 
Cc1ccc2cc(CN(Cc3ccccc3)Cc3nnnn3C3CCCC3)c(=O)[nH]c2c1 | inconclusive [activator, single point] | 
Nn1c(SCc2nc3ccccc3[nH]2)nnc1-c1cccnc1 | inactive | 
Cc1cccc(CNc2ccnc(-c3ccc(N(C)C)cc3)n2)c1 | inactive | 
Cc1cc(C)c2cc(CN(CCO)C(=O)Nc3ccc(Cl)cc3)c(=O)[nH]c2c1 | inactive | 

Compound | Potency | activation
Nc1cc(S(N)(=O)=O)ccc1SSc1ccc(S(N)(=O)=O)cc1N |  | inactive: 5.38% [at 11.4 µM]
CC(=O)N1CCc2cc(Br)cc(S(=O)(=O)N3CCN(C(=O)c4ccco4)CC3)c21 | inconclusive [activator, single point] | 
COc1ccc(C2C(C(=O)N3CCN(c4ccccc4)CC3)c3ccccc3C(=O)N2C)cc1 (stereo not given) | inconclusive [activator, partial curve] | 
O=C(c1cnccn1)N1CCC[C@@]2(CCN(c3ccccn3)C2)C1 | inconclusive [activator, partial curve] | 
COc1ccc2[nH]cc(CCNc3cc(-c4ccccc4C(F)(F)F)ncn3)c2c1 | inactive | 
Clc1ccccc1-c1nc(Nc2ccncc2)c2ccccc2n1 | inactive | 
COc1ccc(C2CC(=O)N3CN(c4ccccc4F)CSC3=C2C#N)cc1OC (stereo not given) | inconclusive [activator, single point] | 
Cc1ccc(NC(=O)CSc2nnc(CCCCCNC(=O)OC(C)(C)C)o2)c(C)c1 | inconclusive [activator, single point] | 
O=C(Nc1ccc2c(c1)OCO2)c1cccc2c1C(=O)N(Cc1cccnc1)C2 | inactive | 
Cc1nc(C)c(C(=O)Nc2ccccc2-c2ccccc2)o1 | inconclusive [activator, partial curve] | 
CC(=O)Nc1ccccc1-c1ccc(C)o1 | inactive | 
CC1CCCCN1CCNc1nc(=S)[nH]c2ccccc12 (stereo not given) | inactive | 
COc1cc2nc(C3CCC3)n(NC(=O)C3CCC(OC)CC3)c(=O)c2cc1OC (stereo not given) | inconclusive [activator, single point] | 
COc1cccc(OC)c1C(=O)Nc1ccccc1C(=O)N1CCOCC1 | inconclusive [activator, single point] | 
Cc1cccc(N(CC(=O)NCc2ccccc2)C(=O)Cn2nnc(-c3ccc(C)o3)n2)c1 | inconclusive [activator, partial curve] | 
COCCn1c(=O)c(-c2cn(C)c3ccccc23)nc2cnc(Oc3ccccc3)nc21 | inconclusive [activator, partial curve] | 
CC1CCCCN1S(=O)(=O)c1ccc(C(=O)Nc2nnc(-c3cccs3)o2)cc1 (stereo not given) | inconclusive [activator, single point] | 
COCc1nc2ccccc2n1Cc1ccccc1Br | active: 31.6 µM | 
Nc1ccccc1CCCC(=O)O |  | inactive: -0.587% [at 11.4 µM]
NC(=O)c1ncn([C@@H]2O[C@@H](CO)[C@@H](O)[C@H]2O)c1O | inconclusive [activator, single point] | 
O=C(Nc1cccc(-c2cn3ccsc3n2)c1)c1ccccc1 | inactive | 
CCOC(=O)C1CCN(S(=O)(=O)C(F)(F)c2nc3ccccc3s2)CC1 | inconclusive [activator, single point] | 
